# Test results: PubChem BioAssay AID493208 (National Center for Advancing Translational Sciences (NCATS), 2011)
# Hit rate of the full screen: of about 44,000 compounds, about 340 (0.77%) were called active. About 5% were inconclusive and are not listed. Calls come from the whole dose curve; as a rule, active = well fitted inhibition curve with a large enough effect; inconclusive = small, poorly fitted or top-dose-only effect; inactive = flat fitted curve, though single readings scatter. Some of the results follow.
# Assay: Acumen qHTS Assay for Inhibitors of the mTORC1 Signaling Pathway in MEF (Tsc2-/-, p53-/-) Cells: Sytravon;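 note: plate controls were DMSO for no effect and rapamycin for full effect; nearly all actives have a fitted effect of over 50% in size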
# Conditions: phospho-rpS6 immunofluorescence/PI, 24 h; series mostly up to 38.3 µM; activity change, negative = inhibition: at the top concentration
# Outline: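 Tsc2-/-, p53-/- mouse embryonic fibroblasts (empty-vector line) exposed to compound 24 hrs at 37 C, fixed, immunostained for phospho-rpS6 and counterstained with propidium iodide. Acumen laser scanning gives % positive cells from Alexa 488/PI ratio, thresholded using 7.5 nM rapamycin; PI count gives viability.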
row,SMILES,"activity change, negative = inhibition"
1,COc1cccc(C(=O)Nc2ccc3nc(SCCOc4ccccc4)sc3c2)c1,inactive: -10.7%
2,O=C(CCNS(=O)(=O)c1ccc2c(c1)CCN2C(=O)C1CC1)Nc1ccc(OC(F)(F)F)cc1,inactive: -18.9%
3,CCC(C)NC(=O)Cn1ccc2cc(S(=O)(=O)N3CCCCCC3)ccc21 (stereo not drawn),inactive: 0.686%
4,CCc1ccc2oc(-c3cc(NC(=O)c4cccs4)ccc3Cl)nc2c1,inactive: 2.5%
5,Cc1ccc(CCNC(=O)c2ccc3c(c2)N(Cc2cccc(F)c2)C(=O)c2ccccc2S3)cc1,inactive: -4.24%
6,COc1cccc2cc(C(=O)Nc3ccc(C)cc3)c(=O)oc12,inactive: -0.691%
7,CCOC(=O)c1ccc(NC(=O)C2=C(C)C(=O)OC23CCN(C(C)C)CC3)cc1,inactive: 7.3%
8,CCn1cc(S(=O)(=O)c2ccccc2)c(=O)c2cc(F)c(F)cc21,inactive: -10.6%
9,Cc1ccc(CN(C(=O)COc2ccc(F)cc2)C2CCS(=O)(=O)C2)o1 (stereo not drawn),inactive: 2.78%
10,CCOc1ccc(N(CC)C(=O)Cn2cnc3sc(C)c(S(=O)(=O)N4CCN(c5ncccn5)CC4)c3c2=O)cc1,inactive: -16.5%
11,CC(C)CCNC(=O)c1ccc2nc(Cc3ccccc3)oc2c1,inactive: -7.37%
12,Cc1cc(NS(=O)(=O)c2ccc(NC(=O)COc3cc(C)c(Br)cc3C(C)C)cc2)no1,inactive: 0.668%
13,COc1ccc(-c2cc(C(F)(F)F)nc(SCC(=O)NC(C)c3ccccc3)n2)cc1 (stereo not drawn),inactive: -21.4%
14,CCCN1C(C(=O)c2ccccc2)=C(OC(=O)COc2ccc(C)cc2)c2ccccc2S1(=O)=O,inactive: 2.59%
15,COC(=O)CN1C(C(=O)c2ccccc2)=C(OC(=O)c2ccccc2)c2ccccc2S1(=O)=O,inactive: 3.76%
16,Cc1ccc(NC(=O)CCCn2nc(C)c3c(C)n(-c4ccccc4)nc3c2=O)c(Cl)c1,inactive: -1.06%
17,Cc1ccc(NC(=O)C2CCCN(S(=O)(=O)c3cccs3)C2)c(C)c1 (stereo not drawn),inactive: -0.597%
18,COc1ccc(S(=O)(=O)N(CC(=O)Nc2ccc(Br)cc2)Cc2ccccc2)cc1,inactive: -0.828%
19,O=C(Nc1c2c(nn1-c1ccc(Cl)cc1)CS(=O)(=O)C2)c1ccc(Br)cc1,inactive: 6.75%
20,CCCSCCCNC(=O)Cn1c(-c2cccs2)cc2ccccc21,inactive: -5.01%
21,Cc1cc(O)c(CN2CCN(c3ccccc3)CC2)c2oc(=O)cc(C)c12,inactive: -0.996%
22,Cc1nc(-c2ccc(S(=O)(=O)NCc3ccccc3Cl)cc2)co1,inactive: -7.4%
23,CCCn1c2ccccc2c2cnn(CC(=O)N3CCCC(C(=O)OCC)C3)c(=O)c21 (stereo not drawn),inactive: 0.426%
24,CCCCN(CCCC)C(=O)c1c[nH]c2ccc(S(=O)(=O)Nc3cccc(Cl)c3C)cc2c1=O,inactive: -3.88%
25,COc1ccccc1-c1nn(CCC(=O)Nc2ccc(C)cc2)c2nc(C)cc(C)c12,inactive: 0.297%

row,SMILES,"activity change, negative = inhibition"
1,COc1ccc(S(=O)(=O)Nc2cccc(-c3ccc(N4CCCC4)nn3)c2)cc1F,inactive: 1.91%
2,CC1=C(C(N)=O)C(c2ccc(C)cc2)n2nc(SCc3ccccc3)nc2N1 (stereo not drawn),inactive: -5.73%
3,O=C(NCc1ccccc1Cl)C1=Cc2cc(Br)ccc2OC1,inactive: 1.16%
4,CCCCCn1c(CCCNC(=O)c2ccccc2OC)nc2ccccc21,inactive: -15.2%
5,CC(C)Oc1ccc(CNC(=O)c2cnc3sc(N4CCCC4)nn3c2=O)cc1,inactive: -2.88%
6,CCOC(=O)NNC(=O)C1CCC(C)CC1 (stereo not drawn),inactive: 4.37%
7,Cc1oc2c(c1C(=O)NCc1ccccc1F)C1=NCCN1C=N2,inactive: -2.55%
8,O=C(NCC(c1ccc2c(c1)OCO2)N1CCN(c2ccccc2)CC1)C(=O)Nc1ccccc1F (stereo not drawn),inactive: -3.11%
9,CCOc1ccc(NC(=O)CC2C(=O)N(c3ccc(OC)cc3)C(=O)N2CCC2=CCCCC2)cc1 (stereo not drawn),inactive: -4.39%
10,CCN(CC)C(=O)Cn1ncc2c([nH]c3ccccc32)c1=O,inactive: 0.0836%
11,COc1cccc(N2CCN(C(=O)c3ccc4nc(N5CCC(C)CC5)sc4c3)CC2)c1,inactive: -1.47%
12,CCOC(=O)c1cnc2ccc(C(=O)OC)cc2c1Nc1ccc(OCc2ccccc2Cl)cc1,inactive: 3.22%
13,COc1ccc(C)cc1NC(=O)N(C(C)C)C1CCN(C(C)=O)CC1,inactive: 5.35%
14,O=C(O)c1cc(-c2ccccc2)nn1Cc1ccccc1,inactive: 1.66%
15,Cc1ccc(-c2nnc3ccccc3c2C(=O)Nc2ccc(F)cc2)cc1,inactive: 3.97%
16,COc1ccc(C(C)=O)cc1CSc1nc(Nc2ccc(F)c(F)c2)c2ccccc2n1,inactive: -1.19%
17,Cc1ccc(N2CCN(c3nc4ccc(C(=O)c5ccccc5)cc4n4cnnc34)CC2)c(C)c1,inactive: -2.42%
18,Cc1cc(C)cc(NC(=O)C(=O)NCCc2sc(-c3cccc(F)c3)nc2C)c1,inactive: 1.6%
19,Cc1ccn2c(Nc3ccccc3)c(-c3c[nH]c4ccccc34)nc2c1,inactive: -19.1%
20,CC(=O)Nc1ccc(NC(=O)c2ccc3c(c2)CCN3S(=O)(=O)c2ccc(C)cc2)cc1,inactive: -8.95%
21,O=C(CSc1n[nH]c(-c2ccccc2)n1)N1CCN(c2ccc(F)cc2)CC1,inactive: 8.36%
22,Cc1noc(Cn2c(=O)c3ccccc3n(CC(=O)Nc3cc(Cl)ccc3C)c2=O)n1,inactive: -5.42%
23,CCOC(=O)c1[nH]c2ccccc2c1NC(=O)c1ccc(C)c(C)c1,inactive: -1.22%
24,O=C(CCn1cnc2onc(-c3ccc(F)cc3)c2c1=O)Nc1cccc(C(F)(F)F)c1,inactive: -9.99%
25,Cc1ccc(-c2nnc(Nc3ccc(OCC(N)=O)cc3)c3ccccc23)cc1S(=O)(=O)NCC1CCCO1 (stereo not drawn),inactive: 0.785%

row,SMILES,"activity change, negative = inhibition"
1,CCOc1ccccc1NC(=O)CN1C(=O)CC(c2ccc(C)c(C)c2)=Nc2ccccc21,inactive: -2.65%
2,Cc1ccc(-n2c(=O)c3c(cnn3C)n(CC(=O)Nc3cccc(Cl)c3)c2=O)cc1,inactive: 3.25%
3,Cc1ccc(CNC(=O)C2CCN(C(=O)N3CC(C)Oc4ccc(Cl)cc43)CC2)cc1 (stereo not drawn),inactive: 1.03%
4,Cc1ccc(CSc2nc3ccccc3c3nc(CCn4c(C)nc5ccccc54)nn23)cc1,inactive: -3.1%
5,CCc1ccccc1NC(=O)CCn1cccn1,inactive: 0.014%
6,Cc1cc(C)cc(NC(=O)C(C)N2Cc3ccccc3C2=O)c1 (stereo not drawn),inactive: -0.307%
7,CCOc1ccc(NC(=O)c2ccc3c(=O)n4c(nc3c2)CCCCC4)cc1,inactive: -0.309%
8,COc1cccc(NC(=O)C(C)n2c(=O)cc(C(F)(F)F)c3c(C)nn(C)c32)c1 (stereo not drawn),inactive: -6.14%
9,Cc1ccc(-c2nnc(SCc3ccccc3)o2)cc1,inactive: 0.833%
10,O=C(NCc1cccc(Br)c1)C1CCCCN1S(=O)(=O)c1ccc(F)cc1 (stereo not drawn),inactive: 0%
11,CCCNC(=O)CN1C(=O)COc2ccc(S(=O)(=O)N3CCCCCC3)cc21,inactive: -7.55%
12,CC1CCN(S(=O)(=O)c2ccc3c(c2)N(C)C(=O)CC(=O)N3C)CC1,inactive: 6.74%
13,CCc1ccc(CNC(=O)CN2C(=O)C3CCCCN3c3ccc(C(=O)N4CCCC4)cc32)cc1 (stereo not drawn),inactive: 0.44%
14,CC(C)Oc1ccc(CNC(=O)C(C)n2ccc3cc(S(=O)(=O)N4CCCCCC4)ccc32)cc1 (stereo not drawn),inactive: -6.06%
15,CCc1ccccc1NC(=O)Cn1c(=O)n(C(C)C)c(=O)c2oc3ccccc3c21,inactive: -9.92%
16,CCOc1ccccc1NC(=O)Cn1c(=O)nc(-c2ccccc2F)c2cc(Cl)ccc21,inactive: 0%
17,COc1ccc(OCc2nc3ccccc3n2Cc2ccc(C(C)(C)C)cc2)cc1,inactive: -24.8%
18,CCN(CC)C(=O)Cn1c(SCC(=O)Nc2ccc(F)cc2)nc2ccccc21,inactive: 19.3%
19,COCCNC(=O)c1ccc(Cn2c(SCC(N)=O)nc3ccccc3c2=O)cc1,inactive: 1.72%
20,Cn1c(SCc2ccc(F)cc2)nc2ccc(C(=O)NCc3cccc(Cl)c3)cc21,inactive: -0.763%
21,COc1ccc2c(CNC3CCC(C)CC3)c(C(=O)O)n(Cc3ccc(F)cc3)c2c1 (stereo not drawn),inactive: -4.9%
22,COc1cccc(OCCSc2nc3ccccc3n2CC(=O)N2CCOCC2)c1,inactive: -12.5%
23,Cc1ccc(N(Cc2cccs2)C(=O)c2ccc(OC(C)C)cc2)cc1,inactive: 0%
24,CCOc1ccccc1C(=O)NCc1ccc2c(c1)CCN2C(=O)c1ccc(F)cc1,inactive: -3.4%
25,COc1ccc(-c2noc(CN(C(=O)c3ccc(C)cc3C)C(C)C)n2)cc1,inactive: -0.118%

row,SMILES,"activity change, negative = inhibition"
1,CCOC(=O)c1ccccc1NC(=O)CSc1ccc(-c2sc(C)nc2C)nn1,inactive: 0.919%
2,Cc1ccc(C(=O)NCCc2csc(-c3cccc(F)c3)n2)cc1C,inactive: 0.263%
3,CCN(C(=O)c1c(C)oc2ncnc(N3CCCCC3)c12)c1cc(C)ccc1C,inactive: 1.27%
4,COc1ccc(C2CC(=O)Nc3c2c(C)nn3-c2nncc(-c3ccccc3)n2)c(OC)c1OC (stereo not drawn),inactive: -20.6%
5,COc1cc2nc(NCCc3cccc(C)c3)n3nc(-c4ccccc4)nc3c2cc1OC,inactive: -2.94%
6,CCOC(=O)c1cccc(NC(=O)COc2ccc3c(C)cc(=O)oc3c2)c1,inactive: -10.4%
7,CCOC(=O)c1cnc2c(ccc3ccccc32)c1Nc1ccccc1O,inactive: -7.36%
8,Cc1cc(C)cc(NC(=O)NCc2noc3ccccc23)c1,inactive: -5.86%
9,CCC(=O)N1CCCc2cc(S(=O)(=O)N3CCC(C(=O)NC4CCC(C)CC4)CC3)ccc21 (stereo not drawn),inactive: -0.518%
10,CCOc1ccccc1C(=O)Nc1cccc(-c2nc3ccccc3s2)c1,inactive: -0.986%
11,COc1ccccc1/C=C/c1nc(C#N)c(NCc2ccccc2)o1,inactive: -2.31%
12,COc1ccc(-c2cn3c(n2)sc2cc(C(=O)NCCc4ccccc4)ccc23)cc1,inactive: -9.37%
13,O=C(OCc1cc(=O)n2nc(C3CC3)sc2n1)c1cccc(NC(=O)c2ccccc2Cl)c1,inactive: 0%
14,Cc1ccc(C)c(NC(=O)c2cnc(N3CCCC3)nc2C)c1,inactive: 0%
15,COc1ccc(-n2ncc(C(=O)NCc3cccs3)c2C2CCN(C(=O)OC(C)(C)C)CC2)cc1,inactive: 2.09%
16,Cc1cccc(CNC(=O)C2CCN(c3nn4cc(-c5ccc(F)cc5)nc4s3)CC2)c1,inactive: -3.03%
17,CCc1ccccc1N(CC)C(=O)c1cc2c(s1)-c1ccccc1SC2,inactive: -4.85%
18,O=C(Cc1ccc(Cl)cc1)NC1CC(=O)N(c2ccc3c(c2)OCCO3)C1 (stereo not drawn),inactive: -5.07%
19,CC1CCN(C(=O)Cn2cc(SCC(=O)NCc3ccccc3)c3ccccc32)CC1,inactive: -1.52%
20,CCc1nnc(NC(=O)c2nc(SCc3cccc(C)c3)ncc2Cl)s1,inactive: 1.89%
21,O=S(=O)(c1ccccc1)n1nc(-c2ccco2)nc1NCc1ccccc1,inactive: 1.64%
22,CCC(Sc1nnc(-c2ccc(F)cc2)c(-c2ccc(F)cc2)n1)C(=O)NC1CCCC1 (stereo not drawn),inactive: -8.84%
23,Cc1cccc(-n2ncc3c(NCCOCCO)ncnc32)c1,inactive: 7.91%
